# Paper PMC12136788
# The list shows a part of the results.
# T1: UNK ZnF1-6 (called full-length) (human, UniProt Q9C0B0 30-357)
# T1 sequence: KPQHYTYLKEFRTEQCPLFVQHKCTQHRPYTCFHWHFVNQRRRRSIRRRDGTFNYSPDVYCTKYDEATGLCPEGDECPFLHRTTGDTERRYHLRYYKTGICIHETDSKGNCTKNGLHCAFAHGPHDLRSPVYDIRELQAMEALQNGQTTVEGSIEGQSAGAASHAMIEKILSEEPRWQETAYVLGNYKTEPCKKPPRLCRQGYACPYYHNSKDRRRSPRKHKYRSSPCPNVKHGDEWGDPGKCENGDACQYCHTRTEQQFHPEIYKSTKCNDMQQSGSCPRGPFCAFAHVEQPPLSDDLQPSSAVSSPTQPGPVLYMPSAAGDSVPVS
# B1: chr15:38485071:38485172:+|3pUTR|ENSG00000171262|unk|total|mutant (ssRNA)
# RNA: GGGAGUUCUACAGUCCGACGAUCUUGCCUCACCUGUAUUGCUGUGGAUGUGUUUUGUGGGUUUUUCAUUCGAUUUUACAAAACCGGGAAAGGCACUUCCAGUUGUAUUCCGCCGGCAGUUGUUGUGAAUCAUUUUUUUCUCUUCAACAGAGGAUUGAGCAUCA
# B2: ENSG00000198589:be:win_2301|CDS|ENSG00000198589|bound_else_gene|NA|bound_elsewhere_windowed (ssRNA)
# RNA: GGGAGUUCUACAGUCCGACGAUCGCUAGCUGAAAGGCUCAUGCUUCAGACAAAUUUAAUCACAAUGACCACAUAUAAUGUGCUGUUUGAGAUUCUUAUAGAACAGAUUGGUACUCAGGUGAUACAUAAACAGCAUCCAGAUCCCAACAGAGGAUUGAGCAUCA
# B3: ENSG00000070961:be:win_4951|3pUTR|ENSG00000070961|bound_else_gene|NA|bound_elsewhere_windowed (ssRNA)
# RNA: GGGAGUUCUACAGUCCGACGAUCGGUAACAGCCCCAUGAAGUACCGCUUUAAUUCCUUGCUGGUAAUCUAAUAGAAUCAGAUUAAGAAAAUUAACACAAUUUUACCAUUUGACAUACUCUUCAUUGAAUUUAGUUUGUCUAAACAACAGAGGAUUGAGCAUCA
# B4: chr3:121987322:121988366:-|three_prime_utr|ENSG00000145103|control|control|control (ssRNA)
# RNA: GGGAGUUCUACAGUCCGACGAUCCCAAGCACAGCACAACUUCUGUGGCUACUUCUCGGCUCCUGUGUGUCAUCAGCAUCACCUAGGUUUCCAGCUGACUUGGGAACUGCAAGUCUGAGUCUAACAGUUUUUGGCUUAGAUUCUCAACAGAGGAUUGAGCAUCA
# B5: chr17:31995613:31995700:+|CDS|ENSG00000178691|msi1_unk|FALSE|overlapping (ssRNA)
# RNA: GGGAGUUCUACAGUCCGACGAUCAGCAUGUCUGAAUUUCUUGAAUCUGAAGAUGGGGAAGUAGAACAGCAAAGAACAUAUAGUAGUGGCCACAAUCGUCUGUAUUUCCAUAGUGAUACCUGCUUACCUCUCCGUCCACAAGAACAACAGAGGAUUGAGCAUCA
# B6: chr17:81922623:81922724:-|CDS|ENSG00000197063|msi1|FALSE|unique (ssRNA)
# RNA: GGGAGUUCUACAGUCCGACGAUCUGCCGCCGGCCUGGGGCCCCUCGUCCCAGGCAAGGUGGCCGCCACCAGCGUCAUCACAAUAGUAAAGUCCAAGACGGAUGCCCGAUCGUAGGGACGCGCGUCUGCCCAGGCGGGUCUUUGCAACAGAGGAUUGAGCAUCA
# B7: chr6:149811313:149811414:+|3pUTR|ENSG00000120265|msi1|total|mutant (ssRNA)
# RNA: GGGAGUUCUACAGUCCGACGAUCUGUUUCUAAUUUGCUGCUGAUAAUGUAUAUGAACUUAACAUGCUGUGUAAGCUGUGUCCCCGUUCUUGAACAGUUUAUGCAGUGCUGCUUUGCCAAAUAAAGUUAAAAGUAAAAGAGGCACAACAGAGGAUUGAGCAUCA
# B8: chr12:52170242:52170446:-|3pUTR|ENSG00000167767|msi1|total|mutant (ssRNA)
# RNA: GGGAGUUCUACAGUCCGACGAUCUGGCCCUCCCCUCCUUGGCAUUCAUGGGGGAGCCCAGGAACCCCCCACACCUAUGGGGUCCGAGCUCCUCCUUUCUUCUCACUCCUUCCCCUUCCUCCCUCCAUGCCCACUCCCCCUGCCCAACAGAGGAUUGAGCAUCA
# B9: ENSG00000075240:stop:overlap|stop_codon|ENSG00000075240|stop_codon|NA|stop_codon (ssRNA)
# RNA: GGGAGUUCUACAGUCCGACGAUCAGACCAUUCUCAGCCAGUACAUCAAGAUCACCUCAGCGGCAGCGUCUGGCGGGGACAGCUAGUAUUGACUUGCCCAGGACGUUGCUGGAAUUUUCUUUUUCUUUUUCUUUUUCUUUUUUUCAACAGAGGAUUGAGCAUCA
# B10: chr19:10683396:10683509:+|CDS|ENSG00000129351|unk|total|mutant (ssRNA)
# RNA: GGGAGUUCUACAGUCCGACGAUCGUUCCAAGGUGCUGGUUCCAACAAAAAGGUGGCGAAGGCCUACGCUGCUCUUGCUGCCCCCGAAAAGCUUUUCCCUGACACCCCUCUCGCCCUUGAUGCCAACAAAAAGAAGAGAGCCCCCAACAGAGGAUUGAGCAUCA
# B11: chr1:227780961:227781062:+|3pUTR|ENSG00000143740|unk|FALSE|unique (ssRNA)
# RNA: GGGAGUUCUACAGUCCGACGAUCCCUGGAAGAGGCCGCCCUCGUCUUGUCUCGGCUCCCUUUCAUGGACAGACUGGCCUUCUUAGCUGUACUAUAAAUUUGUGAGUGAAGUUAGAGCCCAGCUCACUUAGCCAGCUCACUUUGCAACAGAGGAUUGAGCAUCA
# B12: chr7:6023389:6023508:+|CDS|ENSG00000106305|unk|FALSE|unique (ssRNA)
# RNA: GGGAGUUCUACAGUCCGACGAUCGUUCUCUCUGUUUGGCCAGAAGCAUAAUGCUGUCAACGCAACCCUUAUAGAUAGCUGGGUAGAUAUUGCGAUUUUUCAGUUAAAAGAGGGAAGCAGUAAAGAAAAAGCCGCUGUUUUCCGCAACAGAGGAUUGAGCAUCA
# B13: ENSG00000107863:be:win_1251|CDS|ENSG00000107863|bound_else_gene|NA|bound_elsewhere_windowed (ssRNA)
# RNA: GGGAGUUCUACAGUCCGACGAUCAGCAUCUCAAAGCACGACAGAUUAUAACCAGGUCGUCCCCAACCGCACUACUUUGCAGGGACGACGUCGAAGCACCUCUCAUGAUCGAGUGCCCCAGUCUGUCCAGAUACGGCAACGCAGCAACAGAGGAUUGAGCAUCA
# B14: chr12:105021166:105021267:-|3pUTR|ENSG00000136010|unk|total|mutant (ssRNA)
# RNA: GGGAGUUCUACAGUCCGACGAUCAGUCAGACAGUGUCACUUCACUCGUCUGUUUAAAACCUUUCAAUGGCCCCCAUUUCACGCCGACCAAAGUCCAACGUAUUUACCUGGCCUACUGAUCUUGCUCCCCGCUACCUCUGACCUCAACAGAGGAUUGAGCAUCA
# B15: chr3:48658964:48659065:-|CDS|ENSG00000008300|msi1|total|mutant (ssRNA)
# RNA: GGGAGUUCUACAGUCCGACGAUCCGAUGUCUCCGACCACCUCUUCUACUCCUUUGAGCGUGGCAAUGAGCUGCAGCUGCUGGCCGUCAACCAGACCAGUGGGGAGCUGCGACUCAGCCGAAAGCCCGACAAUAACCGCCCACUCAACAGAGGAUUGAGCAUCA
# B16: ENSG00000070961:be:win_3601|CDS_3pUTR|ENSG00000070961|bound_else_gene|NA|bound_elsewhere_windowed (ssRNA)
# RNA: GGGAGUUCUACAGUCCGACGAUCAACAAGUCUGCUACCUCUUCAUCCCCAGGAAGCCCACUACAUAGUUUGGAAACAUCACUCUGAUUGUAAGCUGAAUGUUAACACACUAGCUGCAUUGUAAAGAAACAAAUUGAAACUGGGCAACAGAGGAUUGAGCAUCA
# B17: ENSG00000198589:be:win_1051|CDS|ENSG00000198589|bound_else_gene|NA|bound_elsewhere_windowed (ssRNA)
# RNA: GGGAGUUCUACAGUCCGACGAUCGCAGAUGCUAAUAGAGUAUUCUGUGGUCAGAUGACUGCAGUUUACCUUUUCAGUGAAGCUCUAAAUGCAGCUCAGAUAUUUGCUAUUUAUCAGUUGGGCCUGGGAUACAAGGGUACAUUUCAACAGAGGAUUGAGCAUCA
# B18: chr5:154898482:154898583:-|CDS|ENSG00000082516|unk|FALSE|unique (ssRNA)
# RNA: GGGAGUUCUACAGUCCGACGAUCUUUGGCCAAAAAGGGGGAUGCGGCAUCACUUAGAACGGCUGCAGAGUUGGCUGCCAUCGUAGGAGAGGAUGAGUUGUCUGCUUCCCUGGCUCUCAGAUGUGCCCAAGAGCUGCUUCUGGCCAACAGAGGAUUGAGCAUCA
# B19: chr16:89696356:89697333:-|three_prime_utr|ENSG00000158792|control|control|control (ssRNA)
# RNA: GGGAGUUCUACAGUCCGACGAUCAGGAGCCUUUCCACAUUUCCCCACCCUCGGAACCCAGACGCAUGCCCACAUGUGCUGGGUAGAGGGGUCCAGCCUGUUCCAGCCAGUGCCUGAACCUGUCCCUGAGAAGGACCCUGUGCCCAACAGAGGAUUGAGCAUCA
# B20: chr12:120444061:120444162:-|3pUTR|ENSG00000170855|unk|total|mutant (ssRNA)
# RNA: GGGAGUUCUACAGUCCGACGAUCAAUUGUCAACCUGCAUAUCCUAAAAAUGUCAAAAUGCUGCAUCUGGUUAAAUGUCGGGGCCGGGGGGAAGCUGAAGGUGCUCGCUUCAUUUGCCUUGUUUACUCAUCCUGCCCUGUAAUGCAACAGAGGAUUGAGCAUCA
# B21: chr3:66380370:66380471:-|CDS|ENSG00000144749|msi1|total|mutant (ssRNA)
# RNA: GGGAGUUCUACAGUCCGACGAUCCGGUCAAGUGGGGGUCUGACAGGUUCGUUCUUUCCUUGCCGGGGAUUCUUCCUGGACUUCCGCAAGGUUGUAUCACCCGGACUCCACAGAGCUACAGCCUGCAUCUUCAUUAACUUCAGGCAACAGAGGAUUGAGCAUCA
# B22: chrY:12776687:12776788:+|CDS|ENSG00000114374|msi1|total|mutant (ssRNA)
# RNA: GGGAGUUCUACAGUCCGACGAUCGUUUUUGAUGGUGACAAAAACAGCAUUAAUUGUGCAAGACAAGAAGCCAUUCGAAUGGUCCGAGUAUUAACUGUUAUAAAAGAGUACAUUAAUGAAUGUGACAGUGAUUAUCACAAGGAACAACAGAGGAUUGAGCAUCA
# Target: T1, UNK ZnF1-6 (called full-length)
# Assay: nsRBNS (natural sequence RNA bind-n-seq); RBNS binding buffer (assumed for nsRBNS): 25 mM Tris pH 7.5, 150 mM KCl, 3 mM MgCl2, 0.01% Triton X-100, 500 ug/ml BSA, 20 U/ml SUPERase-In, 4 C; UNK is unkempt and MSI1 is Musashi-1; names of the RNAs are library labels; protein concentration not given here; high values mean tight binding
row,Binder,binding signal
1,B1,0.32 enrichment R
2,B2,0.359 enrichment R
3,B3,0.952 enrichment R
4,B4,0.54 enrichment R
5,B5,0.693 enrichment R
6,B6,0.591 enrichment R
7,B7,0.401 enrichment R
8,B8,0.863 enrichment R
9,B9,1.62 enrichment R
10,B10,1.07 enrichment R
11,B11,1 enrichment R
12,B12,0.766 enrichment R
13,B13,0.494 enrichment R
14,B14,0.614 enrichment R
15,B15,0.549 enrichment R
16,B16,0.455 enrichment R
17,B17,0.422 enrichment R
18,B18,0.93 enrichment R
19,B19,0.683 enrichment R
20,B20,0.648 enrichment R
21,B21,0.685 enrichment R
22,B22,0.375 enrichment R
